Hit rate of the full screen: of about 310,000 compounds, about 2,200 (0.71%) showed an effect of 50% or more. Effects have a minus sign here. The list shows a part of the results.
What follows are molecules tested against human ether-à-go-go-related gene (hERG) potassium channel (human, UniProt Q12809) (assay: primary screen, population patch clamp on CHO cells stably expressing hERG).
Chain of human ether-à-go-go-related gene (hERG) potassium channel (Q12809 whole entry, looked up): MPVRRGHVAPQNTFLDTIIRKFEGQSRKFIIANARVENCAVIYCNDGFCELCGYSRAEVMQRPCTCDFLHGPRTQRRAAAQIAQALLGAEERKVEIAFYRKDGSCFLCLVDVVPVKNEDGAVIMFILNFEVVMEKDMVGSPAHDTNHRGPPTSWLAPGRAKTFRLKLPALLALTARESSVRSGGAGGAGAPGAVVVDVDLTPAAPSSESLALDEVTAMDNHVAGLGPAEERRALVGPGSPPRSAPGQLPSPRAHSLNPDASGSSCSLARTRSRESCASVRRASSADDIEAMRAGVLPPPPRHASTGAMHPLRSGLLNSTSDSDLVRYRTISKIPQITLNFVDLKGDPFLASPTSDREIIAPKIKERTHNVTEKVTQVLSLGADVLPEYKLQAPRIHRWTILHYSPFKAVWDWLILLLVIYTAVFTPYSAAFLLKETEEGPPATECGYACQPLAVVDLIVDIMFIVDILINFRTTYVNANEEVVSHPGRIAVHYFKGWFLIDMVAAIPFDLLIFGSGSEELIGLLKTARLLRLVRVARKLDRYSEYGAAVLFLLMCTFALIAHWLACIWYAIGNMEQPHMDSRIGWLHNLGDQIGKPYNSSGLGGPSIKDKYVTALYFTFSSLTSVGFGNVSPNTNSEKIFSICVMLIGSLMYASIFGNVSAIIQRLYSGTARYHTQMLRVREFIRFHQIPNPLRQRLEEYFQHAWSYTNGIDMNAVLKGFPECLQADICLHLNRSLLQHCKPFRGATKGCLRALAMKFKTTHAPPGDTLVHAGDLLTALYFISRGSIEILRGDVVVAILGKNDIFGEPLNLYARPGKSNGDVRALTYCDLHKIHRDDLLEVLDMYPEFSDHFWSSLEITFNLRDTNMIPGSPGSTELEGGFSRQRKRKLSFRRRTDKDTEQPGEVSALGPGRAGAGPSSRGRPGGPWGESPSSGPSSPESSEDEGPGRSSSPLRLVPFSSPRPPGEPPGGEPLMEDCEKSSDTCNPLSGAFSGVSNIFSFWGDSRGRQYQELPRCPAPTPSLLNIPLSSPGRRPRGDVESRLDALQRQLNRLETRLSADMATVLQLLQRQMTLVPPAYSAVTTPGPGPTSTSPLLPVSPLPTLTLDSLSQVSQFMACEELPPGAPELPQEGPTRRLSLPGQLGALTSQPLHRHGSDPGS

Compound | hERG current change (%, negative = inhibition) at 1uM [%]
Cc1ccc(S(=O)(=O)C2(C(=O)Nc3ccc(C(C)C)cc3)CC2)cc1 | 13.7
CCSc1nnc(NC(=O)[C@@H](NC(=O)c2ccccc2F)C(C)C)s1 | 4.72
Cc1ccc(-n2c(C)cc3c2CC(C)(C)CC3=O)cc1C | 11.4
CC(=O)c1ccc(OCc2cc(C(=O)NC3CCCCC3)no2)cc1 | 0.394
O=C(NCCc1ccc(Cl)cc1)/C(=C/c1cccnc1)NC(=O)c1ccccc1 | -53.8
Cc1cc(C)n2nc(SCc3ccccc3)nc2n1 | 5.58
CC(=O)c1ccc(NC(=O)/C(=C\c2ccccc2)NC(=O)/C=C/c2ccccc2)cc1 | 1.35
Cc1cc(NC(=O)c2ccccc2-c2ccccc2)ccc1Br | 3.66
Cc1nn(CC(=O)O)c(=O)c2ccccc12 | 2.93
O=C1CCCN2N=C(SCC(=O)Nc3ccc(F)cc3F)SC2=N1 | 5.43
CC(=O)n1nc(-c2ccco2)nc1N | 10.2
COc1cc(S(=O)(=O)N2CCCN(C)CC2)ccc1NC(C)=O | 16
COc1ccc(/C=C2\SC(=S)N(CCCC(=O)Nc3ccc(C(=O)O)cc3)C2=O)cc1OC | -6.82
O=C1COc2ccc(C(=O)COC(=O)c3ccccc3[N+](=O)[O-])cc2N1 | -1.13
Fc1ccccc1Cc1nnc2n1N=C(c1ccc(Cl)cc1)CS2 | -8.16
O=C(Oc1oc(-c2ccco2)nc1C=Nc1ccc(Cl)cc1)c1ccco1 | 8.3
COc1cc(OC)cc(C(=O)N(Cc2cc3cc(C)ccc3[nH]c2=O)C(C)C)c1 | 2.31
C/C(=N\OCC(=O)Nc1ccccc1C(=O)O)c1cccs1 | 15.4
CC(=O)C1=C(O)CC(c2ccccc2)CC1=NCCc1ccccc1 (centres unmarked) | 1.54
COc1ccc(/C=N/NC(=O)c2ccc(COc3cccc4cccnc34)cc2)cc1OC | 2.59

Compound | hERG current change (%, negative = inhibition) at 1uM [%]
COc1cc(C(O)P(=O)(OC(C)C)OC(C)C)cc(OC)c1OC (centres unmarked) | -7.22
COc1ccc(NC(=S)NC(=O)C2CCC2)cc1 | 12.8
O=C(CSc1nnnn1C1CCCCC1)NCc1cccs1 | 4.39
COc1ccc(S(=O)(=O)N2CCN(c3ccccc3OC)CC2)cc1C(=O)N1CCCCC1 | 10.6
CCCOc1ccc(C(=O)ON=C2CCN(C)CC2)cc1.Cl | 10.9
COC(=O)C(Cc1ccccc1)NC(=O)CNC(=O)c1ccccc1OC (centres unmarked) | 8.29
O=C(COc1ccc(Cl)cc1)NNC(=O)c1ccccn1 | 9.13
O=C(NCC1CCCO1)c1onc(CSc2cccc(Cl)c2)c1C(=O)O (centres unmarked) | 3.1
Cc1cccc(C(=O)N2CCCC(N3CCN(c4ccccc4)CC3)C2)n1 (centres unmarked) | 10.3
CCC(=O)Nc1cccc(NC(=S)NC(=O)c2ccccc2)c1 | 0.4
Cc1ccc(NC(=O)C(C)N2C(=O)c3ccccc3C2=O)cc1C (centres unmarked) | 13.3
Oc1ccccc1N1CCN(c2ncnc3sc(-c4ccccc4)cc23)CC1 | 1.79
COC(=O)c1cnc2c(C(F)(F)F)cccc2c1OC | -4.9
CCCn1ncc(CN2CCCC(C(=O)c3cccc(OC)c3)C2)c1C (centres unmarked) | -21.4
CCc1nc2ccccc2n1Cc1ccc(F)cc1 | 3.72
CC(C)(C)CC(=O)Nc1cc(S(=O)(=O)N2CCCCCC2)ccc1Cl | 27.8
CCOC(=O)c1[nH]c(C)c(CN(Cc2ccco2)C(=O)C(F)(F)F)c1C | 4.67
CC1C(=O)C(C)C(c2cccc(Br)c2)NC1c1cccc(Br)c1 (centres unmarked) | 15
O=C(NC(=S)NCc1ccccc1)c1ccccc1 | 14.9
N#Cc1cccc(CN2CCC(=O)N(CCO)CC2)c1 | 13.3

Compound | hERG current change (%, negative = inhibition) at 1uM [%]
CCc1nnc(NC(=O)c2ccc3c(c2)C(=O)N(CC)C3=O)s1 | 0.526
O=C(NC1CCCC1)C(c1ccc(Cl)cc1)N(Cc1ccc(F)cc1)C(=O)CCl (centres unmarked) | 17.8
CCOc1ccc2c(O)csc2c1 | 19.1
NNC(=O)Cn1cnc2ccccc21 | 3.34
O=C(Nc1ccc(F)cc1)Nc1nnc(Cc2ccccc2F)s1 | 5.91
CS(=O)(=O)N1CCN(c2nc3ccc(Cl)cc3s2)CC1 | 11.1
CN(CC(=O)Nc1cccc(F)c1)C(=O)C1CCN(C(=O)c2ccc(Cl)cc2)CC1 | -14.7
CC(Oc1ccccc1F)C(=O)NCCN1CCCCC1 (centres unmarked) | 8.89
CN1C(=S)SC(C)(C)C1N(O)C(=O)Nc1ccc(Cl)cc1 (centres unmarked) | 6.42
CCN(CC)c1ccc(C(=O)Nn2cnc3ccccc3c2=O)cc1 | 9.56
C=CCOC(=O)C1=C(C)OC(N)=C(C#N)C1c1ccccc1F (centres unmarked) | -3.19
CC1CC(C)CN(S(=O)(=O)c2ccc(C(=O)OCC(=O)NCCN3C(=O)CSC3=O)cc2)C1 (centres unmarked) | 9.15
COc1ccc(-c2nc(SCC(=O)NC3CCCCC3)n[nH]2)cc1 | -12.3
CCN(Cc1ccccc1)C(=O)c1ccccc1C | 8.23
CN=C1S/C(=C\c2ccc(OCC(=O)OC)c(OC)c2)C(=O)N1C | 13.7
COc1ccccc1C(=O)Nc1ccc(Cc2ccncc2)cc1 | 7.7
Cc1ccc(C(=O)N/C(=C/c2cccs2)C(=O)N2CCCCC2)cc1 | 10.6
CCn1ccc(C(=O)Nc2ccc3c(c2)CCC3)n1 | 7.59
C1COCCO1.O=C(Nc1cccc2ccccc12)C(=O)C1C(=O)Nc2ccccc21 (centres unmarked) | 11.7

Reference: publication PMC4336329 (PLoS ONE, 2015)
